# Experimental data: PubChem BioAssay AID2100 (National Center for Advancing Translational Sciences (NCATS), 2009)
# Among all 300,000 compounds or so, about 1,200 (0.4%) were called active. Inconclusive means that the source gave no clear call. Such entries were picked first, then a sample of the others. The call rests on the fitted dose curve; in most records, active means well fitted inhibition curve with a large enough effect; inconclusive means small, poorly fitted or top-dose-only effect, or another doubt; inactive means no such curve, though single readings can be large or run the other way. A potency beside an inconclusive call is a rough fit, not a confirmed value.
# Target: Lysosomal alpha-glucosidase (Homo sapiens) (UniProt P10253)
# Test: qHTS Assay for Inhibitors and Activators of Human alpha-Glucosidase Cleavage of Glycogen;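 on activity change, negative = inhibition: 0% = full enzyme reaction and -100% = no-enzyme basal signal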
# Conditions: recombinant GAA, glycogen substrate, Amplex Red glucose oxidase fluorescence; activity change, negative = inhibition: at 76.4 µM (top of the series) unless noted
# Method in brief: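 qHTS, 1536-well; enzyme 4 nM final; cpd up to 77 uM; substrate bovine liver glycogen 30 ug; 50 mM citrate/phosphate pH 5.0, 0.01% Tween-20; 37 C, 40 min; Amplex Red detection 45 min RT; Hill fit → AC50.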
# Potency means the concentration at half of the fitted maximal effect.
Compound,"activity change, negative = inhibition",Potency
COc1cccc(CSc2nc(-c3ccccc3F)nc3c2Cc2c(CO)cnc(C)c2O3)c1,inactive: 10.2% [at 76.3 µM],
O=C(CC(c1ccccc1)c1cc(Br)ccc1O)NCCCN1CCOCC1 (configuration not stated),inactive: -5.91% [at 76.3 µM],
CC(C)(C)c1ccc(C(=O)NNc2cc(N3CCOCC3)nc(N3CCOCC3)n2)cc1,,"inconclusive: 31.4 µM [inhibitor, partial curve]"
O=c1[nH]c(CNCc2cccnc2)nc2ccccc12,inconclusive: 34.9% [activator],
CCOC(=O)c1cc(CC)sc1/N=C/C1C(=O)CCCC1=O,,"inconclusive: 35.5 µM [inhibitor, single point]"
Cc1ccccc1-n1c(SCC(=O)N2CCCC2)nnc1-c1ccccn1,,"inconclusive: 9.92 µM [inhibitor, partial curve]"
CCCCc1ccc(NC(=S)NCCc2ccc(F)cc2)cc1,,"inconclusive: 17.8 µM [inhibitor, partial curve]"
Cn1c(N/N=C\c2cccc(O)c2)cc(=O)n(C)c1=O,,"inconclusive: 31.6 µM [inhibitor, single point]"
O=C(O)Cn1cc(/C=N/Nc2ccc([N+](=O)[O-])cn2)c2ccccc21,,"inconclusive: 11.2 µM [inhibitor, partial curve]"
CCSc1nnc2c(n1)[nH]c1c(C)cccc12,inactive: -21.3%,
Cc1cc(Nc2ccccc2)nc(NCc2ccccc2)n1,inactive: -3.12%,
O=C(N/N=C/c1ccccn1)c1ccc(N/N=C/c2ccccn2)cc1,,"inconclusive: 15.8 µM [inhibitor, partial curve]"
O=C(CN1CCCCC1)NNc1nc(-c2ccccc2)c2cc(Br)ccc2n1,,"inconclusive: 8.84 µM [inhibitor, partial curve]"
Cc1ccc(O)c(NC(=O)CCCC(=O)O)c1,,"inconclusive: 35.5 µM [inhibitor, partial curve]"
Cc1ccc(S(=O)(=O)CC(=O)c2ccc([N+](=O)[O-])cc2)cc1,inactive: 5.07%,
O=c1c2ccccc2ncn1/N=C/c1ccccc1,inactive: 7.31%,
NS(=O)(=O)c1ccc(N/N=C/C=C/c2ccccc2[N+](=O)[O-])cc1,,"inconclusive: 50.1 µM [inhibitor, single point]"
CCOc1ccccc1NC(=O)CCS(=O)(=O)c1cccs1,inactive: 0.135%,
Nc1cc(CN2C(=O)c3ccccc3C2=O)cc(Cl)c1O,,active: 7.94 µM
COc1cccc(OC)c1C(=O)Nc1ccc(S(=O)(=O)Nc2nccc(C)n2)cc1,inactive: -7.42% [at 76.3 µM],
CC(CCc1ccccc1)NC(=O)CN1CCN(Cc2ccccc2)C1=O (configuration not stated),inactive: 12.4%,
COc1ccccc1/C=C/C=N/NC(=O)CN1CCN(S(=O)(=O)c2ccc(C)cc2)CC1,,"inconclusive: 20 µM [inhibitor, partial curve]"
O=C1c2ccccc2NC(c2ccc3c(c2)OCO3)N1O (configuration not stated),,"inconclusive: 25.1 µM [inhibitor, partial curve]"
C=CCNc1nc2c3ccccc3n(C(C)=O)c2s1,,"inconclusive: 24.9 µM [inhibitor, single point]"

Compound,"activity change, negative = inhibition",Potency
CCOC(=O)N1CCN(C2=Nc3cccc4cccc2c34)CC1,inactive: 22%,
COC(=O)c1cc(O)c(O)c(O)c1,,"inconclusive: 12.6 µM [inhibitor, partial curve]"
Cc1cccc(OCc2n[nH]c(=S)n2C2CCCCC2)c1,,"inconclusive: 50.1 µM [inhibitor, single point]"
Cc1c(N/C=C/C(=O)c2ccc(Cl)cc2)c(=O)n(-c2ccccc2)n1C,,active: 14.1 µM
O=C(Nc1cccc(C(F)(F)F)c1)Nc1ccc(N2CCCC2)c(S(=O)(=O)Nc2ccccc2Cl)c1,,"inconclusive: 39.5 µM [inhibitor, single point]"
COCCNC(=S)N/N=C(\C)c1ccc(O)cc1,,"inconclusive: 15.8 µM [inhibitor, partial curve]"
C=CCN=C1NN=C(c2cc(C)n(CCOC)c2C)CS1,inactive: 0.365%,
Brc1ccc(-c2nc3ncccn3c2Nc2ccc3c(c2)OCCO3)o1,,active: 22.4 µM
COc1cc(/C=N/Nc2cccc3cccnc23)cc(OC)c1O,,"inconclusive: 9.92 µM [inhibitor, partial curve]"
CC1=C/C(=N\NC(=S)NCc2ccccc2)CC1,,"inconclusive: 50.1 µM [inhibitor, single point]"
Cn1nc(C(F)(F)F)c(C(=O)Nc2ccc(F)cc2F)c1Sc1ccc(C(F)(F)F)cc1,,"inconclusive: 1.41 µM [inhibitor, full curve, poor fit]"
O=C(O)c1cc2nc(-c3cccs3)cc(C(F)(F)F)n2n1,inconclusive: 31.8% [activator],
O=C(CCc1ccc(O)cc1)NNC(=S)NCCc1ccccc1,,"inconclusive: 44.7 µM [inhibitor, single point]"
CCCCC(C(=O)NC(C)(C)C)N(Cc1ccccc1Cl)C(=O)c1snc(C(N)=O)c1N (configuration not stated),,"inconclusive: 7.94 µM [inhibitor, full curve, poor fit]"
OC1(Cc2cc(-c3ccccc3)no2)CCN(CCCc2ccccc2)CC1,inactive: 5.25% [at 76.3 µM],
C=CCc1cc(/C=C/c2nc(O)c([N+](=O)[O-])c(=O)[nH]2)cc(OC)c1O,,active: 11.1 µM
COCCCNC(=S)NNC(=O)c1ccccc1Br,,"inconclusive: 10 µM [inhibitor, full curve]"
O=C(CNc1ccc(Cl)cc1)NNC(=S)NCc1ccccc1,,"inconclusive: 20 µM [inhibitor, partial curve]"
Cc1cn2c(=O)cc(COc3ccc(NC(=O)c4cccc(F)c4)cc3)nc2s1,,"inconclusive: 11.2 µM [inhibitor, partial curve]"
O=C(CSC1=Nc2ccccc2C2=NC(CC(=O)NCc3ccco3)C(=O)N12)NCc1ccco1 (configuration not stated),inactive: -6.09%,
CC1=Nc2ccccc2N=C(NC(=O)c2ccccc2)C1c1ccccc1 (configuration not stated),,"inconclusive: 28.2 µM [inhibitor, single point]"
Cc1[nH]n(-c2ccccc2)c(=O)c1C(C[N+](=O)[O-])c1ccc(Cl)cc1 (configuration not stated),,"inconclusive: 9.92 µM [inhibitor, partial curve]"
CC(C)c1ccc(/C=N/n2c(COc3ccccc3)n[nH]c2=S)cc1,,"inconclusive: 50.1 µM [inhibitor, single point]"
Cc1nc2c(C#N)c[nH]n2c(=O)c1Cc1ccccc1,,"inconclusive: 3.14 µM [inhibitor, partial curve]"

Compound,"activity change, negative = inhibition",Potency
CCn1c(=O)c(C(=O)CN2CCc3ccccc32)c(N)n(Cc2ccccc2)c1=O,,"inconclusive: 12.6 µM [inhibitor, partial curve]"
CCc1nc2cc(CC(=O)O)ccc2o1,,"inconclusive: 25.1 µM [inhibitor, single point]"
Cc1ccc(Cl)cc1NC(=O)N1CCN(C)c2ncccc21,,"inconclusive: 2.51 µM [inhibitor, full curve]"
Oc1cccc(CN2CCCCC2)c1,inactive: 3.09%,
CCC1=NC(c2ccccc2OC)N(O)C1(C)C (configuration not stated),,"inconclusive: 44.7 µM [inhibitor, single point]"
COc1cc2c(cc1OC)CN(Cc1cc(=O)n3cc(C)ccc3n1)CC2,,"inconclusive: 35.5 µM [activator, single point]"
COc1cc(C[C@H](C)[C@H](C)Cc2ccc3c(c2)OCO3)ccc1O,,"inconclusive: 22.2 µM [inhibitor, partial curve]"
CCCNC(=O)c1ccc2c(=O)c(O)c(-c3ccc(F)cc3)[nH]c2c1,,"inconclusive: 22.2 µM [inhibitor, partial curve]"
Cc1ccc(S(=O)(=O)Nc2nc(C)c(NC(=O)Nc3ccc(Cl)cc3Cl)s2)cc1,,"inconclusive: 19.8 µM [inhibitor, partial curve]"
Cc1cccc2nc(-c3cccnc3)c(Nc3ccc(C(C)C)cc3)n12,,"inconclusive: 12.6 µM [inhibitor, partial curve]"
COc1ccccc1/C=N/Nc1nccnc1Cl,,"inconclusive: 24.9 µM [inhibitor, single point]"
Cc1ccc(Nc2c(-c3ccc(N(C)C)cc3)nc3ncccn23)cc1,inactive: -23.3%,
COC(=O)c1ccc(Cl)cc1NC(=O)N1CC(C)Oc2ccccc21 (configuration not stated),,"inconclusive: 25.1 µM [inhibitor, partial curve]"
COc1ccc(C(C)=O)c2c(O)cccc12,,active: 39.8 µM
Cc1cc(C)cc(N(CC(=O)Nc2cccc(C)c2C)S(=O)(=O)c2c(C)[nH]c(=O)[nH]c2=O)c1,inactive: 11.8% [at 76.3 µM],
Oc1cccc2ccc(N3CCOCC3)nc12,,"inconclusive: 6.31 µM [inhibitor, partial curve]"
Nc1ccc(S(=O)(=O)c2ccc(N)c(N)c2)cc1,inactive: -6.13%,
CCOc1cc(C2C(C(=O)OC)=C(C)NC3=C2C(=O)c2ccccc23)ccc1O (configuration not stated),,"inconclusive: 12.6 µM [inhibitor, partial curve]"
CCCCn1c(SCC(=O)c2ccc(O)c(O)c2)nc2ccsc2c1=O,,active: 28.2 µM
CCc1nc2n[nH]c(N)c2c2c1CSC(C)(C)C2,,"inconclusive: 28 µM [inhibitor, single point]"
O=C(O)CCCN1C(=O)/C(=C/C=C/c2ccco2)SC1=S,,"inconclusive: 50.1 µM [inhibitor, single point]"
C/C(CC(=O)Nc1ccc(Cl)c(C(F)(F)F)c1)=N\NC(=O)c1cc2ccccc2cc1O,,"inconclusive: 31.6 µM [inhibitor, partial curve]"
O=C(NNC(=S)NCc1ccc(Cl)cc1)c1cccnc1,,"inconclusive: 50.1 µM [inhibitor, single point]"
CCOc1ccc(N(CC(=O)Nc2ccc(F)cc2F)S(=O)(=O)c2c(C)[nH]c(=O)[nH]c2=O)cc1,inactive: 13.3% [at 76.3 µM],
